Molecules are shown by their SMILES. The list shows a part of the results.

This assay deals with S. aureus RN4220. The assay is described as follows: growth inhibition call (relative growth <= 0.2). The note with it: 50 µM.
Regarding `O=C(C[C@H]1C[C@@H]2c3cc(NC(=O)c4ccc5c(c4)OCO5)ccc3O[C@@H]2[C@H](CO)O1)NCc1cccnc1`, the growth inhibition call is “inactive”.

As for `COc1ccc(NC(=O)Nc2ccc3c(c2)C(=O)N([C@H](C)CO)C[C@H](C)[C@H](CN(C)C(=O)c2ccccc2)OCCCC[C@@H](C)O3)cc1`, the growth inhibition call was “inactive”.

Consider `CN1C(=O)c2cc(NC(=O)Cc3cccs3)ccc2OC[C@@H]2O[C@H](CC(=O)NCc3ccc(-c4ccccc4)cc3)CC[C@@H]21`, for which the growth inhibition call was “inactive”.

As to `Cc1noc(C)c1S(=O)(=O)Nc1ccc2c(c1)CC(=O)N([C@H](C)CO)C[C@@H](C)[C@H](CN(C)S(=O)(=O)c1cccs1)O2`, the growth inhibition call is “inactive”.

In the case of `COc1ccc(S(=O)(=O)Nc2ccc3c(c2)C(=O)N([C@@H](C)CO)C[C@H](C)[C@@H](CN(C)S(=O)(=O)c2cn(C)cn2)O3)cc1`, the growth inhibition call is “inactive”.

Turning to `Cc1noc(C)c1NC(=O)Nc1ccc2c(c1)CC(=O)N([C@H](C)CO)C[C@H](C)[C@H](CN(C)S(=O)(=O)c1cccs1)O2`, the growth inhibition call was “inactive”.

Take `COc1ccc(S(=O)(=O)N(C)C[C@H]2Oc3c(NC(=O)c4ccncc4)cccc3C(=O)N([C@@H](C)CO)C[C@H]2C)cc1`: the growth inhibition call was “inactive”.

On to `Nc1nccc2c1ncn2[C@@H]1C=C(CO)[C@@H](O)[C@H]1O`, for which the growth inhibition call is “inactive”.

Regarding `C[C@H]1CN([C@@H](C)CO)C(=O)c2cc(NC(=O)Nc3cccc4ccccc34)ccc2O[C@@H]1CN(C)C(=O)Nc1ccc2c(c1)OCO2`, the growth inhibition call was “inactive”.

Turning to `COCC(=O)N1C[C@H](C)[C@@H](OC)CN(C)C(=O)c2cc(NC(=O)c3cc(C)on3)ccc2OC[C@@H]1C`, the growth inhibition call is “inactive”.

Consider `Cc1cc(S(=O)(=O)N2CCCO[C@@H]2CNC(=O)C(=O)NCc2ccncc2)ccc1F`, for which the growth inhibition call was “inactive”.

With `NNCCc1ccccc1`, the growth inhibition call is “active”.

With `C[C@H](CO)N1C[C@H](C)[C@@H](CN(C)C(=O)Nc2ccc3c(c2)OCO3)OCCCC[C@H](C)Oc2ccc(NC(=O)Nc3ccccc3)cc2C1=O`, the growth inhibition call was “inactive”.

Consider `C=CCOC(=O)[C@H]1[C@@H]2C(=O)O[C@@H](c3ccccc3)[C@@H](c3ccccc3)N2[C@@H](c2ccc(OCCOC(=O)[C@@H]3C[C@@H]4C(=O)N[C@@H](CC(C)C)C(=O)N4[C@@H]3c3ccc(O)cc3)cc2)[C@]12C(=O)Nc1ccccc12`, for which the growth inhibition call is “inactive”.

Take `C[C@@H]1CCCCO[C@H](CN(C)S(=O)(=O)c2cccs2)[C@H](C)CN([C@@H](C)CO)C(=O)c2cc(NS(C)(=O)=O)ccc2O1`: the growth inhibition call was “inactive”.

Take `Cc1ccc(NC(=O)c2ccc(CN3CCN(C)CC3)cc2)cc1Nc1nccc(-c2cccnc2)n1`: the growth inhibition call was “inactive”.

With `Cc1noc(C)c1S(=O)(=O)N(C)C[C@H]1OCCCC[C@@H](C)Oc2ccc(NC(=O)Nc3ccc(C(F)(F)F)cc3)cc2C(=O)N([C@@H](C)CO)C[C@@H]1C`, the growth inhibition call was “inactive”.

Take `C[C@H]1CN([C@@H](C)CO)C(=O)c2cc(C#Cc3cccc(F)c3)cnc2O[C@@H]1CN(C)Cc1ccccn1`: the growth inhibition call was “inactive”.

For `Cc1cc(=O)n2nc(C(=O)O)nc2[nH]1`, the growth inhibition call was “inactive”.

Consider `Cc1noc(C)c1NC(=O)N(C)C[C@H]1Oc2ccc(NS(=O)(=O)c3cn(C)cn3)cc2C(=O)N([C@@H](C)CO)C[C@H]1C`, for which the growth inhibition call is “inactive”.

As to `C=CC[C@H](CC(=O)NCCO)C(=O)N[C@H](COC(=O)[C@H](CC=C)CC(=O)OC(C)(C)C)Cc1c[nH]c2ccccc12`, the growth inhibition call was “inactive”.

For the compound `O=C(C[C@H]1C[C@H]2c3cc(NC(=O)Cc4ccncc4)ccc3O[C@H]2[C@@H](CO)O1)NCc1ccc2c(c1)OCO2`, the growth inhibition call is “inactive”.

Take `CC(C)NC(=O)Nc1ccc2c(c1)C(=O)N([C@H](C)CO)C[C@H](C)[C@@H](CN(C)S(=O)(=O)c1cn(C)cn1)OCCCC[C@@H](C)O2`: the growth inhibition call was “inactive”.

`C[C@@H]1CN([C@@H](C)CO)C(=O)c2cc(NC(=O)CCCN(C)C)ccc2O[C@H]1CN(C)C(=O)NC1CCCCC1`: the growth inhibition call is “inactive”.

On to `O=C(C[C@H]1CC[C@@H]2[C@H](COC[C@H](O)CN2C(=O)Nc2ccc(Cl)cc2)O1)NCCc1ccncc1`, for which the growth inhibition call is “inactive”.

As to `Cc1ccc(S(=O)(=O)N(C)C[C@@H]2Oc3c(NS(=O)(=O)c4ccccc4)cccc3C(=O)N([C@@H](C)CO)C[C@H]2C)cc1`, the growth inhibition call was “inactive”.

Consider `C[C@@H]1CN([C@@H](C)CO)C(=O)Cc2cc(NC(=O)c3ccncc3)ccc2O[C@@H]1CN(C)Cc1ccc(C(=O)O)cc1`, for which the growth inhibition call is “inactive”.

With `Cc1ccc(S(=O)(=O)N(C)C[C@@H]2Oc3c(NS(=O)(=O)c4ccccc4)cccc3C(=O)N([C@@H](C)CO)C[C@@H]2C)cc1`, the growth inhibition call was “inactive”.

Turning to `C=C1[C@H]2C[C@@H]3C(=C4[C@H](CO[C@@H]4[C@H]4CCCN4S(=O)(=O)c4ccccc4[N+](=O)[O-])[C@H]4C(=O)N(C)C(=O)[C@H]43)C[C@@H]2C(=O)N1C`, the growth inhibition call was “inactive”.

On to `C[C@H](CO)N1C[C@H](C)[C@H](CN(C)Cc2ccc(-c3ccccc3)cc2)Oc2ccc(NS(=O)(=O)c3ccc(Cl)cc3)cc2C1=O`, for which the growth inhibition call was “inactive”.

On to `COc1ccc(NC(=O)N(C)C[C@@H]2OCCCC[C@H](C)Oc3ccc(NC(=O)NC(C)C)cc3C(=O)N([C@@H](C)CO)C[C@@H]2C)cc1`, for which the growth inhibition call is “inactive”.

As for `C[C@@H]1CN([C@@H](C)CO)C(=O)c2cc(NC(=O)Cc3ccccc3)ccc2O[C@@H](C)CCCCO[C@H]1CN(C)C(=O)Nc1ccccc1`, the growth inhibition call is “inactive”.

Turning to `C[C@H](CO)N1C[C@H](C)[C@@H](CN(C)S(=O)(=O)c2ccc(Cl)cc2)OCc2cn(nn2)CCCC1=O`, the growth inhibition call was “inactive”.

As for `C[C@H](CO)N1C[C@H](C)[C@H](CN(C)S(=O)(=O)c2ccc(F)cc2)Oc2ccc(NC(=O)Cn3cnnn3)cc2CC1=O`, the growth inhibition call is “inactive”.

For the compound `O=C(Nc1ccccc1)Nc1ccccc1`, the growth inhibition call is “inactive”.

As for `C=CCCCCCCCCC(=O)[O-].C=CCCCCCCCCC(=O)[O-].[Zn+2]`, the growth inhibition call is “inactive”.

Regarding `COc1cccc(S(=O)(=O)N(C)C[C@@H]2Oc3cc(Br)ccc3S(=O)(=O)N([C@@H](C)CO)C[C@@H]2C)c1`, the growth inhibition call is “inactive”.

On to `Cc1ccc(C#N)c(=O)[nH]1`, for which the growth inhibition call was “inactive”.

`COc1ccc(S(=O)(=O)Nc2ccc3c(c2)C(=O)N([C@H](C)CO)C[C@@H](C)[C@H](CN(C)Cc2ccncc2)O3)cc1`: the growth inhibition call is “inactive”.

On to `COc1ccc(S(=O)(=O)N(C)C[C@@H]2Oc3ccc(NS(=O)(=O)c4cccs4)cc3C(=O)N([C@H](C)CO)C[C@@H]2C)cc1`, for which the growth inhibition call was “inactive”.

For the origin of these results see the antibiotic and cytotoxicity screens of Wong et al. (2023).
